We go through 45 compounds from paper PMC4336329 (PLoS ONE, 2015).

Among all 310,000 compounds or so, about 2,200 (0.71%) showed an effect of 50% or more. Effects have a minus sign here. Some of the results follow.

For this experiment, the target named is human ether-à-go-go-related gene (hERG) potassium channel (human, UniProt Q12809). Description: primary screen, population patch clamp on CHO cells stably expressing hERG.
Sequence of human ether-à-go-go-related gene (hERG) potassium channel (Q12809 whole entry, looked up): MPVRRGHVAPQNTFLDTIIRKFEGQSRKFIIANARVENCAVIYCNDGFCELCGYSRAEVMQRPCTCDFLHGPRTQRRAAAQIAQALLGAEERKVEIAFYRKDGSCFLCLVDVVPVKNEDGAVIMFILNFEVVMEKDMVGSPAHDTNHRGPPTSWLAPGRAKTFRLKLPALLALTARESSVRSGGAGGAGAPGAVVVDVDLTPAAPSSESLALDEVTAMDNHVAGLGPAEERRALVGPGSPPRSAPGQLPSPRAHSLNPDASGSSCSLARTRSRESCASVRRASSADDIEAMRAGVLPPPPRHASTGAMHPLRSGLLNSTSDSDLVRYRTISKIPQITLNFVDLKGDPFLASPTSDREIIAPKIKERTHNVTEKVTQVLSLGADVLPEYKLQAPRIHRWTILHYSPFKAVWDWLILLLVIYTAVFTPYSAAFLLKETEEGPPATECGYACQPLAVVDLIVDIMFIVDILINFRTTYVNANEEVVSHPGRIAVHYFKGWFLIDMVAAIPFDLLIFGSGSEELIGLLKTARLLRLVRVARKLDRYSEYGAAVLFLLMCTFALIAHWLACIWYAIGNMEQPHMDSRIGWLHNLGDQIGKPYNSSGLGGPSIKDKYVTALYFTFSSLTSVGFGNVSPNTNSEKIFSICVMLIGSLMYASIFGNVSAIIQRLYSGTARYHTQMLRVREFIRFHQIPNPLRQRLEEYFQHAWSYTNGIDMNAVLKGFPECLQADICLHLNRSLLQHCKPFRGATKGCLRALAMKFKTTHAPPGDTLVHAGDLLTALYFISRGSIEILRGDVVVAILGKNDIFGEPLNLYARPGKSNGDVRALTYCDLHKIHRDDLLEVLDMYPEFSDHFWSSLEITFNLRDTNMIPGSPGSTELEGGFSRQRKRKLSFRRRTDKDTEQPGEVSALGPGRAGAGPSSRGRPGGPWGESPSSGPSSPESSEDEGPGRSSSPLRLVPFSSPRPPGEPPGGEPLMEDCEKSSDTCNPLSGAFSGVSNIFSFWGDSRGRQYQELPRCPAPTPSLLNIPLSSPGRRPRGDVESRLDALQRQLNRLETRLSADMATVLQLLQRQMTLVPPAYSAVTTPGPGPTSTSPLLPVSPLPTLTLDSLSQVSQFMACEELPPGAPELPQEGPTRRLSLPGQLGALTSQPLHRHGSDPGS
Consider `Cc1ccc(N2C(=O)NC(=O)/C(=C\C=C\c3ccco3)C2=O)cc1C`, for which the “hERG current change (%, negative = inhibition) at 1uM” value is reported as 2.07%. Under `CC(Oc1ccc(Cl)cc1Cl)C(=O)NCc1ccncc1` (stereo not drawn) stands 2.07%. Under `COc1ccccc1OCCNC(=O)c1ccccc1OCc1c(C)noc1C` stands 15.3%. Take `C=CCc1c(C)nc2c(-c3ccccc3)cnn2c1N1CCOCC1`: the “hERG current change (%, negative = inhibition) at 1uM” value is on record as 14.1%. The same measure for `CCc1cccc2c(C(=S)N3CCCC3)c[nH]c12`: 7.51%; for `O=c1c2ccccc2nc(/C=C/c2ccc([N+](=O)[O-])cc2)n1CCCO`: -31%. `C[C@H]1CN=C(Nc2ccccc2)N1CCC1CCCC1`: the “hERG current change (%, negative = inhibition) at 1uM” value was -0.228%.

On to `Cc1cc2[nH]c(=O)c(=O)[nH]c2cc1S(=O)(=O)N1CCN(c2ccccc2)CC1`, for which the “hERG current change (%, negative = inhibition) at 1uM” value is 7.61%.

In the case of `Cc1[nH]c2ccccc2c1-c1csc(NC(=O)CN2CCOCC2)n1`, the “hERG current change (%, negative = inhibition) at 1uM” value is given as 14.7%. The same measure for `Cc1csc(NC(=O)Cc2c(F)cccc2Cl)n1`: 10.1%; for `CCc1nn2c(=O)cc(COc3cccc(NC(=O)c4ccco4)c3)nc2s1`: 4.74%. Under `Cc1ccc(CNS(=O)(=O)CCNC(=O)c2ccc3c(c2)OCO3)cc1` stands 3.72%; under `COCCCNC(=S)NCCCNc1nc2cc3c(cc2cc1C#N)OCO3`, 10.2%. `O=C1CC(N2CCN(c3ccccc3Cl)CC2)C(=O)N1c1ccccc1` (stereo not drawn): the “hERG current change (%, negative = inhibition) at 1uM” value was 5.01%.

Regarding `CCC(C)(C(=O)NC1CCCC1)N(Cc1cccs1)C(=O)c1ccc2c(c1)OCO2` (stereo not drawn), the “hERG current change (%, negative = inhibition) at 1uM” value was determined as 2.22%.

For `CCN1CCN(C(=O)C2(NC(=O)Nc3ccccc3Cl)CCCCC2)CC1`, the “hERG current change (%, negative = inhibition) at 1uM” value was determined as 0.0186%. Under `COc1ccc(CN(CCCN2CCOCC2)C(=O)Nc2ccccc2)cc1OC` stands 3.31%; under `COc1ccc(C(=O)Nc2nc(C)c(C(=O)N(C)C)s2)cc1OC`, 13%; under `CC(C)(C)c1ccc(C(=O)NC(=S)N2CCOCC2)cc1`, 0.072%.

Take `COc1cc(/C=N/NC(=O)CCNC(=O)c2ccccc2Cl)ccc1O`: the “hERG current change (%, negative = inhibition) at 1uM” value was 10.9%. Under `CCOc1ccc(C(=O)N(CC(=O)Nc2cccc(C)c2C)CC2CCCO2)cc1OC` (stereo not drawn) stands 2.66%; under `Cc1cc([N+](=O)[O-])nn1CC(=O)N/N=C/c1ccccc1O`, 11.8%. Under `O=Cc1ccc(Sc2nnc(-c3ccccc3)o2)c([N+](=O)[O-])c1` stands 11.2%; under `CCOC(=O)c1oc2ccccc2c1N`, 9.68%. Under `Cc1cc(C)c2c(n1)nn1c(C3CC3)cc(C(F)(F)F)nc21` stands 5.43%. For the compound `COc1ccc(C(=O)N2CCN(C(=O)c3ccco3)CC2)cc1`, the “hERG current change (%, negative = inhibition) at 1uM” value was determined as 7.36%. On to `COc1cccc(C(=O)Nc2cc(C)ccc2NC(=O)COc2ccccc2)c1`, for which the “hERG current change (%, negative = inhibition) at 1uM” value came to 12.2%.

As to `O=C(O)CSc1cccc2cccnc12`, the “hERG current change (%, negative = inhibition) at 1uM” value worked out at 12.9%. Under `CCC1(C)Cc2nc3[nH]c(=S)n(-c4ccccc4)c(=O)c3cc2CO1` (stereo not drawn) stands 14.2%. Under `O=C(c1cccs1)n1nc(-c2ccccc2)nc1NCc1ccc(F)cc1` stands -24%. The same measure for `COc1ccc(-c2csc(N(CCCN(C)C)C(=O)c3cccs3)n2)cc1.Cl`: -51.6%; for `Cc1nc2ncnn2c(C)c1CCC(=O)NC(C)CCc1ccco1` (stereo not drawn): 6.81%.

`O/N=C/c1ccc2ccccc2c1`: the “hERG current change (%, negative = inhibition) at 1uM” value was determined as 2.15%.

Turning to `CCC(C)Nc1nc2c(c(=O)n(C)c(=O)n2C)n1Cc1ccc(F)cc1` (stereo not drawn), the “hERG current change (%, negative = inhibition) at 1uM” value stood at 8.54%. Under `CCn1c(SCc2nnc(-c3ccccc3)o2)nnc1-c1ccc(S(=O)(=O)N2CCCC2)cc1` stands -7.27%. The same measure for `Cc1ccc(-n2nc(C(=O)O)c(C)c(C#N)c2=O)cc1Cl`: 12.2%. In the case of `CCN1C(=O)C(CC(=O)Nc2ccc(OC)cc2)N(CCCN2CCN(c3ccc(F)cc3)CC2)C1=S` (stereo not drawn), the “hERG current change (%, negative = inhibition) at 1uM” value is given as -2.73%. Under `O=c1oc(-c2cccs2)nc2ccccc12` stands 8.5%; under `CC(=O)N(c1nc(CCl)cs1)c1c(C)cc(C)cc1C`, 11.7%; under `Fc1ccc(C[n+]2c(-c3ccccc3)cc(-c3ccccc3)cc2-c2ccccc2)cc1.[O-][Cl+3]([O-])([O-])[O-]`, -27.1%. The same measure for `CCCCCSc1nnc(-c2cc(Br)ccc2N)c(=O)[nH]1`: 5.76%; for `Cc1ccc([N+](=O)[O-])cc1NC(=O)Cc1cccs1`: 4.01%.

For the compound `N#CCCn1nc(-c2ccccc2)cc1Nc1ccccc1NC(=O)C(F)(F)F`, the “hERG current change (%, negative = inhibition) at 1uM” value is -3.12%. For the compound `O=C(Nc1ccccc1N1CCOCC1)c1ccc(Cl)c(S(=O)(=O)NCc2ccco2)c1`, the “hERG current change (%, negative = inhibition) at 1uM” value is recorded as -8.24%. Consider `CCc1cc2c(=O)n(N)c(CCC(=O)O)nc2s1`, for which the “hERG current change (%, negative = inhibition) at 1uM” value was -2.13%.
